The campaign covered roughly 48,000 compounds. About 120 (0.25%) were called active. Inconclusive results (about 4%) are left out. Calls follow the shape of the dose curve; as a rule, active = well fitted activation curve with a large enough effect; inconclusive = small, poorly fitted or top-dose-only effect, or another doubt; inactive = no such curve, though single readings can be large or run the other way. This is one part of the list.

This assay in a line: Primary qHTS for Identification of Small Molecule Activators of Huntingtin-Antisense Promoter Activity. Also: nearly all actives have a fitted effect of over 55% in size. The note with it: HEK293 HTT-AS promoter firefly luciferase reporter (activity 0% = vehicle and -100% = no light), 24 h; series mostly up to 57.5 µM; activity change, positive = activation: at the top concentration. In outline: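 Quantitative HTS used concentration series of up to 57.5 uM final on HEK293 luciferase reporter cells, 24 h at 37 degrees C. Readout was Dual-Glo firefly luminescence.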
On the technique in general: qHTS replaces the single test concentration by a dilution series.
With `Fc1ccc(-c2nc3c4c(-c5ccccc5)c(-c5ccccc5)oc4ncn3n2)cc1`, the “activity change, positive = activation” value is inactive: -21.4%. The value for `CCC(Oc1ccccc1)C(=O)N1CCN(Cc2cc(=O)n3nc(-c4cccc(C)c4)sc3n2)CC1` (stereo unspecified) was inactive: -40.9%. Turning to `CCOC(=O)CNC(=O)Nc1cc(C(=O)NCc2ccc(C(C)C)cc2)ccc1N1CCCC1`, the “activity change, positive = activation” value was inactive: -1.61%. Take `C[N+]12CCC(CC1)C(OC(=O)C(O)(c1ccccc1)c1ccccc1)C2` (stereo unspecified): the “activity change, positive = activation” value is inactive: 0.638%.

`Cc1cc(OCC(=O)Nc2sc3c(c2C#N)CCC(C)C3)ccc1Cl` (stereo unspecified): the “activity change, positive = activation” value is inactive: -12.9%.

Consider `Cc1ccc2[nH]c(=O)c3cc(C(=O)NCc4cccc(Cl)c4)sc3c2c1`, for which the “activity change, positive = activation” value is inactive: -5.92%. In the case of `Cc1cc(C)c(/C=C/c2onc(C)c2S(=O)(=O)N2CCC(C(=O)Nc3cccc(C)c3C)CC2)c(C)c1`, the “activity change, positive = activation” value is inactive: -1.88%. For `COc1ccccc1-c1noc(CSc2nnc(-c3ccccc3)n2-c2ccc(C)c(C)c2)n1`, the “activity change, positive = activation” value was inactive: -11%.

On to `CC(=O)c1ccc(NC(=O)CSc2nc(-c3ccccc3C)nc3c2c(=O)n(C)c(=O)n3C)cc1`, for which the “activity change, positive = activation” value was inactive: -2.23%.

In the case of `CCOC(=O)c1c(C)oc2nc(C)nc(N(C)Cc3ccccc3)c12`, the “activity change, positive = activation” value is inactive: -38.2%. Take `O=C(CSc1ncc(-c2ccc(Cl)cc2)[nH]1)Nc1ccccc1F`: the “activity change, positive = activation” value is inactive: -12.2%. In the case of `CCOc1ccc(C(=O)c2cn(Cc3cccc(OC)c3)c3cc4c(cc3c2=O)OCO4)cc1`, the “activity change, positive = activation” value was inactive: -20.8%. The value for `O=C(C1CCCN(S(=O)(=O)c2cccc3nonc23)C1)N1CCN(c2cccc(C(F)(F)F)c2)CC1` (stereo unspecified) was inactive: -36%; that for `COc1ccc(S(=O)(=O)NCc2ccc3c(c2)CCN3C(C)=O)cc1OC` was inactive: -25.2%. The value for `Nc1ncnc2c1ncn2[C@@H]1O[C@H](COP(=O)(O)O)[C@@H](O)[C@H]1O` was inactive: -1%. The value for `Cc1ccc(NC(=O)CCS(=O)(=O)c2ccc3nc(C)sc3c2)c(C)c1` was inactive: -9.7%; that for `CCOc1ccc(CN2C(=O)c3ccccc3Sc3ccc(C(=O)NCCCN4CCOCC4)cc32)cc1` was inactive: -31.9%. For the compound `CCOc1ccc(S(=O)(=O)N(CC(=O)NCCc2ccc(OC)cc2)c2ccccc2)cc1`, the “activity change, positive = activation” value was inactive: -20.2%. Consider `COc1ccccc1N1CCN(c2c(CN3CCCC3)c(=O)oc3ccccc23)CC1`, for which the “activity change, positive = activation” value is inactive: -8.34%.

For the compound `CCOc1ccc(C(=O)Nc2ccc(NC(=O)c3ccccc3)cc2)cc1Br`, the “activity change, positive = activation” value is inactive: 2.58%. The value for `COC(=O)c1ccc([C@H]2Nc3ccc(S(=O)(=O)Nc4ccc(F)cc4)cc3[C@H]3C=CC[C@H]32)cc1` was inactive: -14.5%; that for `Cc1ccc(S(=O)(=O)N2CCCc3cc(NS(=O)(=O)c4ccccc4)ccc32)cc1` was inactive: -11.3%; that for `Cc1ccc(OCC(=O)N(Cc2nc(-c3ccccc3)no2)C(C)C)cc1C` was inactive: -23.2%. As for `CN(C)c1ncc(C(=O)NCc2ccccc2Cl)cn1`, the “activity change, positive = activation” value is inactive: -0.941%. As for `CCCCCNC(=O)C1CCC(Cn2c(=O)c3sccc3n(CC(=O)NCc3cccc(OC)c3OC)c2=O)CC1` (stereo unspecified), the “activity change, positive = activation” value is inactive: -20.2%. The value for `CCCCC(=O)Nc1nnc(S(=O)(=O)N(C)Cc2ccccc2)s1` was inactive: -10.1%; that for `CCSc1nnc2c(n1)OC(c1ccc(OC)c(OC)c1)N(C(C)=O)c1ccccc1-2` (stereo unspecified) was inactive: 0%; that for `CN(C)c1ccc(CNC(=O)C2CCN(Cc3cc4ccccc4n3Cc3ccccc3)CC2)cc1` was inactive: -23.6%. In the case of `Cc1cccc(N(C)S(=O)(=O)c2cc3[nH]c(=O)c(=O)[nH]c3cc2C)c1`, the “activity change, positive = activation” value is inactive: -1.83%. Take `NS(=O)(=O)c1cc2c(cc1Cl)NCNS2(=O)=O`: the activity change, positive = activation result was “inactive”. In the case of `Cc1ccc(-c2noc(CSc3nnc(C)n3-c3ccc(C)c(C)c3)n2)cc1`, the “activity change, positive = activation” value was inactive: -33.7%. The value for `COc1ccc(Cl)cc1NC(=O)CSc1ccc2nnc(CCNS(=O)(=O)c3ccccc3)n2n1` was inactive: -16.9%. The value for `C[N+]1(C)CCC(=C(c2ccccc2)c2ccccc2)CC1` was inactive: -9.58%. `Cc1ccc2[nH]c(=O)c3cc(C(=O)NC4CCC(C)CC4)sc3c2c1` (stereo unspecified): the “activity change, positive = activation” value was inactive: -11%. The value for `CCOc1ccc(NC(=O)c2cc(S(=O)(=O)N3CCN(c4ccccc4F)CC3)ccc2F)cc1` was inactive: -21.6%; that for `CCCCN(C)C(=O)CSc1nc2ccccc2nc1Cc1ccc(C)cc1` was inactive: -5.64%. In the case of `O=c1cc(-c2ccccc2)n2c(SCc3ccccc3Cl)nnc2[nH]1`, the “activity change, positive = activation” value was inactive: -3.26%. Consider `COc1ccc(-n2c(=O)c3c4c(sc3n(C)c2=O)CN(C(C)=O)CC4)cc1`, for which the “activity change, positive = activation” value was inactive: -3.54%.

As for `COc1ccccc1CNC(=O)C(=O)NCC(c1cccs1)S(=O)(=O)c1cccs1` (stereo unspecified), the “activity change, positive = activation” value was inactive: -20.3%. With `Cc1ccc2oc(C(=O)N(Cc3sccc3C)C3CCS(=O)(=O)C3)c(C)c2c1` (stereo unspecified), the “activity change, positive = activation” value is inactive: -37.3%. For the compound `COc1cccc(CNC(=O)c2nc(Cn3nc(C)c(Br)c3C)no2)c1`, the “activity change, positive = activation” value was inactive: -2.1%. `CCOc1ccc(Nc2c(S(=O)(=O)c3ccc(C)cc3)cnc3ccc(F)cc23)cc1`: the “activity change, positive = activation” value is inactive: -44.5%. As for `CON=C(C(=O)N[C@@H]1C(=O)N2C(C(=O)O)=C(Cn3ccc(=N)n3CCO)CS[C@H]12)c1csc(N)n1`, the “activity change, positive = activation” value is inactive: -14.5%. `COc1cccc2c1cc1c(=O)n(CC(=O)NCc3ccco3)nc(C)n12`: the “activity change, positive = activation” value is inactive: -19.2%. With `Cc1c(Cl)cccc1NC(=O)CSc1nc(=O)n(Cc2ccco2)c2c1CCC2`, the “activity change, positive = activation” value was inactive: -46.2%. As to `Cc1ccc(CCNC(=O)CN(c2ccc(C)cc2)S(=O)(=O)N(C)C)cc1`, the “activity change, positive = activation” value is inactive: -16.5%. The value for `Cn1nnnc1SCCCNCc1cccc(OCc2ccccc2)c1` was inactive: -7.28%; that for `O=C(NCc1ccc(Cl)cc1)NC1COc2ccccc2C1` (stereo unspecified) was inactive: -13%; that for `CC1CCN(S(=O)(=O)c2ccc3c(c2)N(CC(=O)NCC(C)c2ccccc2)C(=O)CO3)CC1` (stereo unspecified) was inactive: -29.6%. The value for `Cc1c(C(=O)OCc2ccccc2)[nH]c2c1C(=O)CC(c1ccc(Cl)cc1)C2` (stereo unspecified) was inactive: -12.4%; that for `O=C(NCc1ccco1)c1ccc(Cn2c(SCc3ccccc3F)nc3cccnc32)cc1` was inactive: -3.4%.

As to `O=C1c2cccc(O)c2C(=O)c2c(O)cc(CO)cc21`, the “activity change, positive = activation” value is inactive: -16.2%. The value for `CN(C)CCC=C1c2ccccc2C=Cc2ccccc21` was “inactive”; that for `O=C(NC1CCCCC1)c1ccc2c(c1)N(Cc1ccccc1Cl)C(=O)c1ccccc1S2` was inactive: -15.8%. The value for `CN(C)CCc1c[nH]c2ccc(C[C@H]3COC(=O)N3)cc12` was “inactive”. The value for `CCOc1ccccc1NC(=O)C1CCCN1S(=O)(=O)c1ccc2nc(-c3ccccc3)[nH]c2c1` (stereo unspecified) was inactive: -39.5%.

For `COc1ccc(CCNC(=O)Cn2cc(S(=O)(=O)Cc3ccc(F)cc3)c3ccccc32)cc1OC`, the “activity change, positive = activation” value is inactive: -27.2%. Consider `CCOc1ccc(C(=O)c2oc3ccccc3c2NC(=O)c2cc(-c3ccc(C)cc3)on2)cc1`, for which the “activity change, positive = activation” value was inactive: -1.86%. The value for `Cc1ccc(-c2cc(C(F)(F)F)n3ncc(-c4ccccc4)c3n2)cc1` was inactive: -7.44%. The value for `CCOc1ccc(S(=O)(=O)Nc2ccc3oc4c(c3c2)CC(C)CC4)cc1` (stereo unspecified) was inactive: -7.8%; that for `COc1ccccc1CNC(=O)COCc1cc(-c2ccc3c(c2)OCO3)on1` was inactive: -12.1%.

The values above are taken from PubChem BioAssay AID1508624 (National Center for Advancing Translational Sciences (NCATS), 2021).
